This note sets out measurements from the supplement of paper PMC10369915.

B1: DSC1_Y846 (peptide)
chain: KHCEDYVCSYN
B2: DSCC1_Y374_H376R (peptide)
chain: ALLTKYSRSSM
B3: DYNC2H1_Y2231 (peptide)
chain: PMDTYYDSTRG
B4: DYNC2H1_Y2230_M2227V_YF (peptide)
chain: KPVDTYFDSTR
B5: DUOX2_Y70_Q71L_YF (peptide)
chain: FADGVYLALEE
B6: DSCC1_Y374 (peptide)
chain: ALLTKYSHSSM
B7: DPPA2_Y127 (peptide)
chain: LHRHAYPEQRQ
B8: DYNC1H1_Y3379 (peptide)
chain: NPSYNYEIVNR
B9: DTX3L_Y385 (peptide)
chain: VDSAHYKLLET
B10: DYNC1H1_Y3051_E3048K (peptide)
chain: SHKELYKWFTS
B11: DTX2_Y425 (peptide)
chain: STASGYSDVTD
B12: DTX2_Y425_T421A (peptide)
chain: SAASGYSDVTD
B13: DOK2_Y271 (peptide)
chain: RPDSPYSRPHD
B14: DOCK3_Y548_C550S_YF (peptide)
chain: HELFVYKSDEN
B15: DOCK2_Y1555 (peptide)
chain: FFTEEYVRDHP
B16: DPP10_Y512 (peptide)
chain: DNPAKYFILES
B17: DOK7_Y405_R402Q (peptide)
chain: SLQAHYDTPRS
B18: DUS3L_Y610_D609N (peptide)
chain: YLGRNYLETLM
B19: DSP_Y1512 (peptide)
chain: LQRVQYDLQKA

This is one part of the list. No stated cut-off is given here; in the data, active = 3.2 or more and inactive = the rest. Only a few entries rise above the background.
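Further: displayed peptides selected on beads carrying the immobilized SH2 domain, with library peptides lacking any tyrosine serving as negative controls.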

The first test concerns the target SHP2 C-SH2 domain E139D. Briefly: enrichment score (SH2-bound / input frequency) (ratio); bacterial display of known human phosphotyrosine sites (pTyr-Var adds point mutants) read by sequencing; higher = stronger binding; tyrosines were phosphorylated by kinases first. The conditions noted are these: peptide library: pTyr-Var.
Take B1: the enrichment score is inactive: 1.56.

As to B2, the enrichment score was inactive: 1.12.

With B3, the enrichment score was inactive: 0.673.

Consider B4, for which the enrichment score was inactive: 0.735.

As to B5, the enrichment score was inactive: 0.846.

On to B6, for which the enrichment score is inactive: 1.2.

B7: the enrichment score is inactive: 2.73.

For B8, the enrichment score is inactive: 0.632.

On to B9, for which the enrichment score is inactive: 0.829.

As for B10, the enrichment score is inactive: 1.39.

On to B11, for which the enrichment score was inactive: 0.479.

With B12, the enrichment score is inactive: 0.328.

On to B13, for which the enrichment score was inactive: 0.741.

B14: the enrichment score is inactive: 1.31.

Consider B15, for which the enrichment score is inactive: 1.16.

On to B16, for which the enrichment score was inactive: 0.877.

Regarding B17, the enrichment score was inactive: 0.743.

As to B18, the enrichment score was inactive: 1.26.

As to B19, the enrichment score was inactive: 0.803.

The target in another test is SHP2 C-SH2 domain wild-type. The description is as above. The settings on record: peptide library: pTyr-Var.
B1: the enrichment score is inactive: 1.36.

With B2, the enrichment score was inactive: 0.862.

For the molecule B3, the enrichment score was inactive: 0.616.

For the molecule B4, the enrichment score was inactive: 0.839.

Take B5: the enrichment score was inactive: 0.887.

Turning to B6, the enrichment score was inactive: 1.08.

As for B7, the enrichment score is inactive: 2.65.

B8: the enrichment score is inactive: 0.751.

Turning to B9, the enrichment score was inactive: 0.626.

For B10, the enrichment score was inactive: 1.51.

B11: the enrichment score is inactive: 0.568.

As for B12, the enrichment score was inactive: 0.709.

For the molecule B13, the enrichment score is inactive: 0.615.

For B14, the enrichment score is inactive: 0.894.

B15: the enrichment score is inactive: 0.99.

Take B16: the enrichment score was inactive: 0.618.

Take B17: the enrichment score was inactive: 0.536.

As to B18, the enrichment score was inactive: 1.5.

Turning to B19, the enrichment score was inactive: 1.11.

The target of another test is SHP2 N-SH2 domain L43F. The description is as above. The conditions noted are these: peptide library: pTyr-Var.
As for B1, the enrichment score was inactive: 1.67.

Consider B2, for which the enrichment score is inactive: 0.964.

Consider B3, for which the enrichment score is inactive: 0.834.

With B4, the enrichment score is inactive: 0.837.

Take B5: the enrichment score is inactive: 0.927.

As to B6, the enrichment score is inactive: 1.26.

As to B7, the enrichment score is inactive: 2.53.

B8: the enrichment score was inactive: 0.652.

With B9, the enrichment score was inactive: 0.674.

On to B10, for which the enrichment score is inactive: 1.22.

As to B11, the enrichment score is inactive: 0.392.

Regarding B12, the enrichment score is inactive: 0.249.

Turning to B13, the enrichment score was inactive: 0.685.

Consider B14, for which the enrichment score is inactive: 1.38.

As for B15, the enrichment score is inactive: 0.847.

B16: the enrichment score was inactive: 0.765.

Regarding B17, the enrichment score is inactive: 0.631.

For B18, the enrichment score is inactive: 1.39.

As for B19, the enrichment score was inactive: 0.81.

A further test has as its target SHP2 N-SH2 domain T42A. Described as above. The conditions noted are these: peptide library: pTyr-Var.
Turning to B1, the enrichment score is inactive: 1.37.

As to B2, the enrichment score is inactive: 0.879.

Regarding B3, the enrichment score was inactive: 0.686.

As to B4, the enrichment score is inactive: 0.558.

As for B5, the enrichment score is inactive: 0.917.

Consider B6, for which the enrichment score was inactive: 1.03.

Take B7: the enrichment score was inactive: 2.59.

Regarding B8, the enrichment score was inactive: 0.597.

Consider B9, for which the enrichment score is inactive: 0.647.

Take B10: the enrichment score was inactive: 1.62.

With B11, the enrichment score is inactive: 0.462.

Take B12: the enrichment score is inactive: 0.416.

As to B13, the enrichment score was inactive: 0.423.

Consider B14, for which the enrichment score is inactive: 0.796.

Consider B15, for which the enrichment score is inactive: 1.26.

Turning to B16, the enrichment score was inactive: 0.832.

Regarding B17, the enrichment score was inactive: 0.527.

With B18, the enrichment score is inactive: 1.5.

Take B19: the enrichment score is inactive: 0.873.

For the next test, the target named is SHP2 N-SH2 domain T52S. The test is described as above. The conditions noted are these: peptide library: pTyr-Var.
Turning to B1, the enrichment score is inactive: 1.56.

For the molecule B2, the enrichment score is inactive: 1.12.

Turning to B3, the enrichment score was inactive: 0.764.

In the case of B4, the enrichment score is inactive: 0.937.

Take B5: the enrichment score was inactive: 0.862.

As for B6, the enrichment score is inactive: 1.07.

On to B7, for which the enrichment score is inactive: 2.7.

Consider B8, for which the enrichment score was inactive: 0.734.

In the case of B9, the enrichment score is inactive: 0.729.

With B10, the enrichment score is inactive: 1.8.

As for B11, the enrichment score is inactive: 0.463.

B12: the enrichment score is inactive: 0.319.

On to B13, for which the enrichment score was inactive: 0.572.

As for B14, the enrichment score is inactive: 1.14.

Consider B15, for which the enrichment score is inactive: 1.02.

Take B16: the enrichment score is inactive: 0.92.

B17: the enrichment score is inactive: 0.636.

For B18, the enrichment score was inactive: 1.36.

Regarding B19, the enrichment score is inactive: 0.727.

For another test, the target named is SHP2 N-SH2 domain wild-type. The description is as above. The settings on record: peptide library: pTyr-Var.
Take B1: the enrichment score was inactive: 1.61.

Consider B2, for which the enrichment score was inactive: 0.902.

For B3, the enrichment score was inactive: 0.858.

In the case of B4, the enrichment score was inactive: 0.981.

As for B5, the enrichment score was inactive: 0.854.

For the molecule B6, the enrichment score is inactive: 1.36.

In the case of B7, the enrichment score was inactive: 2.78.

As to B8, the enrichment score is inactive: 0.725.

For B9, the enrichment score was inactive: 0.77.

For the molecule B10, the enrichment score is inactive: 1.44.

Turning to B11, the enrichment score is inactive: 0.571.

Take B12: the enrichment score was inactive: 0.419.

In the case of B13, the enrichment score was inactive: 0.783.

With B14, the enrichment score is inactive: 1.12.

B15: the enrichment score is inactive: 1.32.

B16: the enrichment score was inactive: 0.886.

Consider B17, for which the enrichment score was inactive: 0.732.

Regarding B18, the enrichment score is inactive: 1.17.

For B19, the enrichment score is inactive: 0.602.
